{
  "source": "PubChem BioAssay AID504333",
  "about": "(National Center for Advancing Translational Sciences (NCATS), 2011)",
  "note": "The campaign covered roughly 360,000 compounds. About 16,000 (4.4%) were called active. Inconclusive means that the source gave no clear call. Such entries were picked first, then a sample of the others. Calls come from the whole dose curve; as a rule, active = well fitted inhibition curve with a large enough effect; inconclusive = small, poorly fitted or top-dose-only effect; inactive = no such curve, though single readings can be large or run the other way. Potencies beside an inconclusive call are fits to weak or partial responses and may not hold up. Potency is the fitted concentration of half-maximal effect; tags give direction and shape of the fitted curve.",
  "data": [
    {"target": "Bromodomain adjacent to zinc finger domain protein 2B (Homo sapiens) (UniProt Q9UIF8)", "sequence (Q9UIF8 whole entry, looked up, the tested form may be a part)": "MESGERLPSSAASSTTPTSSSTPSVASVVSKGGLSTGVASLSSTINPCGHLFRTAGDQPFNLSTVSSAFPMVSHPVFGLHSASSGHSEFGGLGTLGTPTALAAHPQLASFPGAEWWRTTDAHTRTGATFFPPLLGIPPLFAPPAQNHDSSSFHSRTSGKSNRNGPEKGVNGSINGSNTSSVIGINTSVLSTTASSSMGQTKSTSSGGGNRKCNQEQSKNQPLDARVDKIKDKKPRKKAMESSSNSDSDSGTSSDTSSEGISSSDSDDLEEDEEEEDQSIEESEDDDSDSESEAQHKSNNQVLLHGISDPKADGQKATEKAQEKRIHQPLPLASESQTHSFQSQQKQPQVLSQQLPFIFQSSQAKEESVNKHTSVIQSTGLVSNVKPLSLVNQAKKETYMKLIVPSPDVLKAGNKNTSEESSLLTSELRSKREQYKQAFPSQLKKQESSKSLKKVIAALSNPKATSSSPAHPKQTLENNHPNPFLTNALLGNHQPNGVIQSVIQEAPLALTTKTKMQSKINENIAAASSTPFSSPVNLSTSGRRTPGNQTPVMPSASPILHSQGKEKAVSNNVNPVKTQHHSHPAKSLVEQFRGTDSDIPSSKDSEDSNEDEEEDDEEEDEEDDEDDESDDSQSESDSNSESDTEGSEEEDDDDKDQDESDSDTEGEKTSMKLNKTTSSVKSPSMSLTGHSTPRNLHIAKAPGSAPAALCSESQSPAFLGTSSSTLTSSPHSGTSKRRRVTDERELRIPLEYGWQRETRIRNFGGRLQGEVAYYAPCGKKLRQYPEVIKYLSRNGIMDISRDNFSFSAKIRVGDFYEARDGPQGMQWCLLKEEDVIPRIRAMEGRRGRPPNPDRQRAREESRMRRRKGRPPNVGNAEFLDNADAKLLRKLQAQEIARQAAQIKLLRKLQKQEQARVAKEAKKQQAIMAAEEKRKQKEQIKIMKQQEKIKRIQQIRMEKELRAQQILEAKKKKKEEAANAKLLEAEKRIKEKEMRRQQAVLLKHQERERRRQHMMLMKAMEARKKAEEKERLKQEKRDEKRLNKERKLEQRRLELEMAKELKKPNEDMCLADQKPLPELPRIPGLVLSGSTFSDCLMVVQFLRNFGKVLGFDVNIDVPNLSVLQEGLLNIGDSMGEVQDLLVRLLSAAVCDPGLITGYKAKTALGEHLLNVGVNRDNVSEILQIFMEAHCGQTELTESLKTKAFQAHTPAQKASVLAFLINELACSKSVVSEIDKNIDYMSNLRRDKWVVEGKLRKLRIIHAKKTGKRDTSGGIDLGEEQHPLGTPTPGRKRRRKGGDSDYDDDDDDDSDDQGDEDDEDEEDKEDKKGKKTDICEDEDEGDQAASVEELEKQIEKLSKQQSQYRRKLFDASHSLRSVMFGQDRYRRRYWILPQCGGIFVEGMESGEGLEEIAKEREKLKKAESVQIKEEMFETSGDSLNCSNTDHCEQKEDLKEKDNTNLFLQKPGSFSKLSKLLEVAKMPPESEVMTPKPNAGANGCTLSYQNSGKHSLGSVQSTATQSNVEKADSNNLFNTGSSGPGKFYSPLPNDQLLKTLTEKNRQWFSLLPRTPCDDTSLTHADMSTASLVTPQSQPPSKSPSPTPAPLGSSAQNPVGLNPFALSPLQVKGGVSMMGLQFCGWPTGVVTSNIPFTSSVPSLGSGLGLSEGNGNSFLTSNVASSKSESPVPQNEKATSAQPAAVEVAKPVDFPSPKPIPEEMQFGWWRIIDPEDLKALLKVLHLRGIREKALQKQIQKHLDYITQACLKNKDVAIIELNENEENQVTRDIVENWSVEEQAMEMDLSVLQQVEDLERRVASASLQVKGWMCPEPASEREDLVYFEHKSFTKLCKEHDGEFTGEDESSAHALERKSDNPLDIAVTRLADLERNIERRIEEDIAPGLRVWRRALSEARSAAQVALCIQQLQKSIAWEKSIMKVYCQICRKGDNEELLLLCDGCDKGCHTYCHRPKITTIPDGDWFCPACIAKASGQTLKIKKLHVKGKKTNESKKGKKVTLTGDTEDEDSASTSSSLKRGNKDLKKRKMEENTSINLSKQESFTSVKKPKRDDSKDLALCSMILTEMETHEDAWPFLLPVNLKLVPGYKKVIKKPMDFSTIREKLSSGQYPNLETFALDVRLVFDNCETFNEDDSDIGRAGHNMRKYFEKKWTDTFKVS", "assay": "qHTS Assay for Inhibitors of BAZ2B; note: nearly all actives have a fitted effect of over 60% in size", "conditions": "AlphaScreen BAZ2B-H3K14Ac peptide displacement; series mostly up to 114 µM", "how_it_was_run": "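AlphaScreen displacement of biotin-H3(5-23)K14Ac peptide (50 nM final) from BAZ2B (50 nM final) in PBS pH 7.4, 0.01% Tween-20; complex preformed 30 min RT, then compounds (top 110 uM) 30 min RT, beads 20 min dark.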", "values": [
      {"smiles": "COC(=O)c1ccccc1NC(=S)NC(=O)c1ccccc1F", "Potency": "inconclusive: 89.1 µM [inhibitor, single point]"},
      {"smiles": "CCc1ccccc1NC(=O)C1CCCN(c2cnccn2)C1", "note": "(stereo not drawn)", "Potency": "inactive"},
      {"smiles": "CC1(C)CC(=O)C(/C=N/n2cnc3ccccc3c2=O)=C(O)C1", "Potency": "active: 50.1 µM"},
      {"smiles": "Cc1occc1C(=O)n1nnc2ccccc21", "Potency": "inactive"},
      {"smiles": "O=C1c2ccccc2-c2onc3c(NCCO)cc(NC4CCCCC4)c1c23", "Potency": "active: 3.55 µM"},
      {"smiles": "COc1ccc(/C=N/Nc2cc(C)nc3ccc(Br)cc23)cc1", "Potency": "inconclusive: 44.7 µM [inhibitor, partial curve]"},
      {"smiles": "C/C(=N\\Nc1ccc(Cl)c(C(=O)O)c1)c1cccc2ccccc12", "Potency": "inconclusive: 79.4 µM [inhibitor, single point]"},
      {"smiles": "CN(C)S(=O)(=O)c1cccc(NC(=S)Nc2ccc3cn[nH]c3c2)c1", "Potency": "inactive"},
      {"smiles": "O=C(NCC(c1ccco1)N1CCCC1)c1cccc(S(=O)(=O)Nc2ccc(Br)cc2)c1", "note": "(stereo not drawn)", "Potency": "inconclusive: 79.4 µM [inhibitor, single point]"},
      {"smiles": "CN(C)CCCN=Cc1c(-c2ccccc2)[nH]n(-c2nc3ccccc3s2)c1=O", "Potency": "inconclusive: 1.12 µM [inhibitor, full curve, poor fit]"},
      {"smiles": "Cc1cc(C2=NNC(=Nc3ccccc3)SC2)c(C)n1C", "Potency": "inconclusive: 79.4 µM [inhibitor, partial curve]"},
      {"smiles": "CN(CC(=O)Nc1ccccc1C(F)(F)F)C(=O)CCc1nc2sc3c(c2c(=O)[nH]1)CCCC3", "Potency": "inactive"},
      {"smiles": "COc1cc(/C=N\\NS(=O)(=O)c2ccccc2)cc(OC)c1OC", "Potency": "inconclusive: 25.1 µM [inhibitor, full curve, poor fit]"},
      {"smiles": "O=C(Nc1ccccc1N1CCOCC1)c1cc(-c2ccncc2)nc2ccccc12", "Potency": "inconclusive: 15.8 µM [inhibitor, full curve, poor fit]"},
      {"smiles": "Oc1cccc(NC(=S)N=Nc2c(O)[nH]c3ccc(Br)cc23)c1", "Potency": "inconclusive: 17.8 µM [inhibitor, full curve]"},
      {"smiles": "COc1ccc(/C=N/n2cnn(Cc3ccccc3Cl)c2=S)cc1OC", "Potency": "inactive"},
      {"smiles": "O=C(c1ccccc1)c1ccccc1", "Potency": "inactive"},
      {"smiles": "CCc1ccc(N2Cc3ccccc3C2)cc1", "Potency": "inconclusive: 44.7 µM [inhibitor, partial curve]"},
      {"smiles": "Cc1ccc(C(=O)c2sc(Nc3ccccc3)c(S(=O)(=O)c3ccccc3)c2N)c(C)c1", "Potency": "inactive"},
      {"smiles": "Cc1ccc(-c2ccc(CCC(=O)O)n2-c2ccc(O)cc2)cc1", "Potency": "inconclusive: 89.1 µM [inhibitor, single point]"},
      {"smiles": "Cc1ccc(-c2c(C(=O)Nc3ccccc3C)c(C)[nH]c(=S)c2C#N)o1", "Potency": "active: 79.4 µM"},
      {"smiles": "CCOc1ccc(-c2nc(S(=O)(=O)c3ccccc3)c(NCc3cccnc3)o2)cc1", "Potency": "inconclusive: 79.4 µM [inhibitor, single point]"},
      {"smiles": "Cc1cccc(N/N=C(\\C=N\\N)C(=O)c2ccc(Br)cc2)c1", "Potency": "inconclusive: 20 µM [inhibitor, partial curve]"},
      {"smiles": "CCN(CC)CCOc1ccccc1C(C)=O", "Potency": "active: 50.1 µM"},
      {"smiles": "FC(F)(F)c1cccc(NC(=S)Nc2cccc(NC(=S)Nc3cccc(C(F)(F)F)c3)n2)c1", "Potency": "inconclusive: 44.7 µM [inhibitor, partial curve]"},
      {"smiles": "CCC(C)n1c(=O)c2sccc2n2c(CCCC(=O)NCc3ccccc3Cl)nnc12", "note": "(stereo not drawn)", "Potency": "inactive"},
      {"smiles": "COc1ccc(OCC(O)CN2CCCCCC2)cc1", "note": "(stereo not drawn)", "Potency": "active: 50.1 µM"},
      {"smiles": "O=C(CSc1nnc(CNC(=O)c2cccs2)o1)Nc1ccc(Cl)cc1", "Potency": "inactive"},
      {"smiles": "COc1ccccc1CNC(=O)c1ccc2[nH]c(C)c(C)c2c1", "Potency": "active: 50.1 µM"},
      {"smiles": "Cc1nc(C(F)(F)F)c(C(=O)N/N=C(\\N)c2ccccn2)s1", "Potency": "active: 10 µM"},
      {"smiles": "CC(C)c1ccc([N+](=O)[O-])cc1S(=O)(=O)N1CCN(C)CC1", "Potency": "inactive"},
      {"smiles": "COc1ccc(C(=O)COC(=O)/C=C/c2ccccc2)cc1", "Potency": "inactive"},
      {"smiles": "CNC(=O)c1sc(=S)n(-c2ccc(OC)cc2)c1N", "Potency": "inactive"},
      {"smiles": "CSc1nc2ccc3nc(NC(=O)c4ccccc4)sc3c2s1", "Potency": "inactive"},
      {"smiles": "COc1cc(CNC2CCCCC2OC)cc(OC)c1OC", "note": "(stereo not drawn)", "Potency": "inconclusive: 89.1 µM [inhibitor, single point]"},
      {"smiles": "CCN1CCN(CCOc2cccc(Oc3ccccc3)c2)CC1", "Potency": "active: 20 µM"},
      {"smiles": "O=C(CNS(=O)(=O)c1ccc(Br)s1)NC1CCCc2ccccc21", "note": "(stereo not drawn)", "Potency": "inactive"},
      {"smiles": "COc1cc(C(=O)NC(=S)N(CCc2ccccc2)CCc2ccccc2)cc(OC)c1OC", "Potency": "active: 8.91 µM"},
      {"smiles": "O=C(O)c1cccc(Nc2nc(-c3ccccc3)nc3ccccc23)c1", "Potency": "inconclusive: 89.1 µM [inhibitor, single point]"},
      {"smiles": "O=c1[nH]n2c(-c3ccccc3)nc(O)c2c2ccccc12", "Potency": "inactive"},
      {"smiles": "CC(=O)c1c(C)[nH]c(C(=O)C(C)Sc2nnc(NC3CC3)s2)c1C", "note": "(stereo not drawn)", "Potency": "inconclusive: 89.1 µM [inhibitor, single point]"},
      {"smiles": "CCOC(=O)C1=C(CS(=O)(=O)c2ccc(F)c(C)c2)NC(=O)NC1c1ccc(O)c(O)c1", "note": "(stereo not drawn)", "Potency": "inconclusive: 89.1 µM [inhibitor, single point]"},
      {"smiles": "COc1ccccc1N1CCN(C(=O)c2sc3nc(-c4ccc(F)cc4)cn3c2C)CC1", "Potency": "inconclusive: 39.8 µM [inhibitor, full curve, poor fit]"},
      {"smiles": "O=C(CCCN1C(=O)/C(=C/c2ccccc2Cl)SC1=S)N1CCCC1", "Potency": "active: 14.1 µM"},
      {"smiles": "COc1cc(CN2CCc3ccccc3C2)ccc1O", "Potency": "active: 50.1 µM"},
      {"smiles": "CC1CCC/C(=C\\Nc2ccc3c(c2)OCO3)C1=O", "note": "(stereo not drawn)", "Potency": "inconclusive: 70.8 µM [inhibitor, single point]"},
      {"smiles": "O=c1[nH]ncc2c3ccccc3n(Cc3cccc(Cl)c3)c12", "Potency": "inconclusive: 89.1 µM [inhibitor, single point]"},
      {"smiles": "COc1ccc(CCN2CC(C#N)=C3c4cc(OC)c(OC)cc4CCN3C2)cc1OC", "Potency": "inconclusive: 79.4 µM [inhibitor, single point]"},
      {"smiles": "O=C(/C=C/c1ccco1)NC(=S)Nc1ccc(N2CCCC2)cc1", "Potency": "active: 10 µM"},
      {"smiles": "O=c1c2ccccc2nc(SCc2cccc(F)c2)n1-c1cccc(S(=O)(=O)N2CCCC2)c1", "Potency": "inconclusive: 89.1 µM [inhibitor, single point]"},
      {"smiles": "COc1cccc2c(SCC(=O)N/N=C/c3ccc(O)cc3O)cc(C)nc12", "Potency": "inactive"},
      {"smiles": "COc1ccc(/C=C2/SC(=S)N(NS(=O)(=O)c3ccc(C)cc3)C2=O)cc1", "Potency": "active: 39.8 µM"},
      {"smiles": "CCN=C1S/C(=C\\c2cc(Br)c(O)c(OC)c2)C(=O)N1CC", "Potency": "inactive"},
      {"smiles": "CCn1c(=O)cc(OCC(=O)N2CCN(c3ccc(C)cc3)C(C)C2)c2ccccc21", "note": "(stereo not drawn)", "Potency": "inconclusive: 56.2 µM [inhibitor, partial curve]"},
      {"smiles": "COc1ccc(-c2csc3ncnc(Oc4ccc5c(C)cc(=O)oc5c4)c23)cc1", "Potency": "inconclusive: 89.1 µM [inhibitor, single point]"},
      {"smiles": "CCN(CC)S(=O)(=O)c1ccc(C(=O)NCCSc2c(-c3ccc(F)cc3)[nH]c3ccccc23)cc1", "Potency": "inactive"},
      {"smiles": "CCOC(=O)C(=O)Nc1nnc(C2CCCCC2)s1", "Potency": "inactive"},
      {"smiles": "COC(=O)C1=C(C)N(Cc2ccccc2)C(=NCc2ccco2)N[C@H]1c1ccc(Br)cc1", "Potency": "active: 79.4 µM"},
      {"smiles": "Cc1ccc(Cl)c(OCC(=O)OC(C)C(=O)NC2CC2)c1", "note": "(stereo not drawn)", "Potency": "inactive"},
      {"smiles": "CCOC(=O)N1CCC(N2Cc3cccc(C(=O)NCC4CCN(CC(C)C)C4)c3C2=O)CC1", "note": "(stereo not drawn)", "Potency": "inactive"},
      {"smiles": "COCCN1CCN(C(=O)c2cc(COc3cncc(Cl)c3)on2)CC1", "Potency": "inactive"},
      {"smiles": "CC(C)(C)c1n[nH]c(=S)n(/N=C/c2cccs2)c1=O", "Potency": "inactive"},
      {"smiles": "O=C1CSC(c2cccc([N+](=O)[O-])c2)N1Cc1ccccc1", "note": "(stereo not drawn)", "Potency": "inconclusive: 79.4 µM [inhibitor, partial curve]"},
      {"smiles": "COc1ccc2c(c1)c(=O)c(S(=O)(=O)c1ccc(F)cc1)cn2Cc1ccccc1Cl", "Potency": "inactive"},
      {"smiles": "CCn1c(=O)cc(OCC(=O)NCc2ccccc2OC)c2ccccc21", "Potency": "inconclusive: 89.1 µM [inhibitor, single point]"},
      {"smiles": "CCN(CC)c1ccc(C2N(C(=O)N3CCOCC3)CCN2S(=O)(=O)c2ccc(C)cc2)cc1", "note": "(stereo not drawn)", "Potency": "inconclusive: 79.4 µM [inhibitor, single point]"},
      {"smiles": "CCC1CCCCN1Cc1ccc(OC)c(C)c1C", "note": "(stereo not drawn)", "Potency": "inconclusive: 35.5 µM [inhibitor, single point]"},
      {"smiles": "O=C(Cc1noc2ccccc12)Nc1ccccn1", "Potency": "inactive"},
      {"smiles": "Cc1ccc(-n2nc(C)c3c(C)c(CCC(=O)NCC4CCCO4)c(=O)n(C)c32)cc1", "note": "(stereo not drawn)", "Potency": "inactive"},
      {"smiles": "CSC1=NC(C)(C)C=C(/C=C/c2ccc(Cl)cc2)N1", "Potency": "inconclusive: 50.1 µM [inhibitor, partial curve, poor fit]"},
      {"smiles": "CCSc1nnc(NC(=O)C2CC(=O)N(Cc3ccccc3)C2)s1", "note": "(stereo not drawn)", "Potency": "inconclusive: 79.4 µM [inhibitor, single point]"},
      {"smiles": "Cc1ccc(-c2onc(C)c2C)cc1S(=O)(=O)NCc1ccc(N(C)C)cc1", "Potency": "active: 35.5 µM"},
      {"smiles": "Cc1ccc(NC(=O)COC(=O)/C=C/c2ccc(Br)o2)cc1S(=O)(=O)N(C)C", "Potency": "inconclusive: 50.1 µM [inhibitor, partial curve]"},
      {"smiles": "O=C(CSc1cn(CC(=O)N2CCCCCC2)c2ccccc12)NCC1CCCO1", "note": "(stereo not drawn)", "Potency": "inactive"},
      {"smiles": "O=C(Nc1ccc(N2CCCCC2)cc1)C(Cl)c1ccccc1", "note": "(stereo not drawn)", "Potency": "inconclusive: 70.8 µM [inhibitor, single point]"},
      {"smiles": "CCc1nnc(NS(=O)(=O)c2ccc(NC(=S)NC(=O)c3ccncc3)cc2)s1", "Potency": "inconclusive: 79.4 µM [inhibitor, single point]"},
      {"smiles": "COc1cn(-c2ccccc2)nc1C(=O)Nc1ccc(C)cc1Cl", "Potency": "active: 79.4 µM"},
      {"smiles": "Cc1cccc(NC(=O)CN2C(=O)N/C(=C/c3ccc(-c4cccc(C(=O)O)c4C)o3)C2=O)c1", "Potency": "inconclusive: 100 µM [inhibitor, partial curve]"}
    ]}
  ]
}
